# Some of the results follow.
# B1: AMA (Arum maculatun) (protein)
# chain: MAKLLLLLLLPAIVGLAVPRSAAAVGSNYMLSGETLNTDGRLTNGELTLIMQVDCNLVLYHGGWQSNTANNGRDCKLTLTDFGELVIKSGTGSTVWSSGSKQSMKGNYAAVVHPEGRLVIYGPSVFKINPSGAGLNGLPLRNIPLTNNMLFSGQVLYGDGTLSARNHKLVMQGDCNMVLYGGKYGWQSNTHGNGKYCFAMLTHKGELVIRDDDFKSVWSSKSSSKQGDYVFILQDDSLAIIYGPAVFSTGSKKMISMVTN
# Tests used:
# Assay in all cases: glycan array binding signal (z-score within array); higher = stronger binding
# Details in all cases: glycan notation: IUPAC condensed, linker removed
# [1] = molecular target: Fuc(a1-3)[Gal(b1-4)]GlcNAc(b1-3)Gal(b1-3)[Fuc(a1-4)]GlcNAc
# Method in brief: (§1)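 From the Consortium for Functional Glycomics database, 3228 arrays were curated, keeping only those whose protein sequence was available. Binding is given as a within-array Z-score averaged across arrays sharing a protein sequence and across linkers. Negative Z-scores can be read as non-binding.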
# [2] = molecular target: Fuc(a1-3)[Gal(b1-4)]GlcNAc(b1-3)Gal(b1-4)[Fuc(a1-3)]GlcNAc
# Method in brief: as §1
# [3] = molecular target: Fuc(a1-3)[Gal(b1-4)]GlcNAc(b1-3)Gal(b1-4)[Fuc(a1-3)]GlcNAc(b1-3)Gal(b1-4)[Fuc(a1-3)]GlcNAc
# Method in brief: as §1
# [4] = molecular target: Fuc(a1-3)[Gal(b1-4)]GlcNAc(b1-3)GalNAc
# Method in brief: as §1
# [5] = molecular target: Fuc(a1-3)[Gal(b1-4)]GlcNAc(b1-4)Gal(b1-4)[Fuc(a1-3)]GlcNAc
# Method in brief: as §1
# [6] = molecular target: Fuc(a1-3)[Gal(b1-4)]GlcNAc(b1-4)Gal(b1-4)[Fuc(a1-3)]GlcNAc(b1-4)Gal(b1-4)[Fuc(a1-3)]GlcNAc
# Method in brief: as §1
# [7] = molecular target: Fuc(a1-3)[Gal(b1-4)]GlcNAc(b1-6)GalNAc
# Method in brief: as §1
# [8] = molecular target: Fuc(a1-3)[Gal(b1-4)]GlcNAc(b1-6)[Gal(b1-3)GlcNAc(b1-3)]Gal(b1-4)Glc
# Method in brief: as §1
# [9] = molecular target: Fuc(a1-3)[Gal(b1-4)]GlcNAc6S
# Method in brief: as §1
# [10] = molecular target: Fuc(a1-3)[Gal3S(b1-4)]Glc
# Method in brief: as §1
# [11] = molecular target: Fuc(a1-3)[Gal3S(b1-4)]GlcNAc
# Method in brief: as §1
# [12] = molecular target: Fuc(a1-3)[Gal3S(b1-4)]GlcNAc6S
# Method in brief: as §1
# [13] = molecular target: Fuc(a1-3)[GalNAc(b1-4)]GlcNAc
# Method in brief: as §1
# [14] = molecular target: Fuc(a1-3)[GalNAc(b1-4)]GlcNAc6S
# Method in brief: as §1
# [15] = molecular target: Fuc(a1-4)GlcNAc
# Method in brief: as §1
# [16] = molecular target: Fuc(b1-3)GlcNAc
# Method in brief: as §1
# [17] = molecular target: Gal(a1-2)Gal
# Method in brief: as §1
# [18] = molecular target: Gal(a1-3)Gal
# Method in brief: as §1
# [19] = molecular target: Gal(a1-3)Gal(b1-3)GlcNAc
# Method in brief: as §1
# [20] = molecular target: Gal(a1-3)Gal(b1-3)GlcNAc(b1-2)Man
# Method in brief: as §1
# [21] = molecular target: Gal(a1-3)Gal(b1-3)GlcNAc(b1-2)Man(a1-3)[Gal(a1-3)Gal(b1-3)GlcNAc(b1-2)Man(a1-6)]Man(b1-4)GlcNAc(b1-4)GlcNAc
# Method in brief: as §1
# [22] = molecular target: Gal(a1-3)Gal(b1-3)GlcNAc(b1-3)GalNAc
# Method in brief: as §1
# [23] = molecular target: Gal(a1-3)Gal(b1-3)GlcNAc(b1-6)GalNAc
# Method in brief: as §1
# [24] = molecular target: Gal(a1-3)Gal(b1-3)[Fuc(a1-4)]GlcNAc(b1-2)Man(a1-3)[Gal(a1-3)Gal(b1-3)[Fuc(a1-4)]GlcNAc(b1-2)Man(a1-6)]Man(b1-4)GlcNAc(b1-4)GlcNAc
# Method in brief: as §1
# [25] = molecular target: Gal(a1-3)Gal(b1-4)Glc
# Method in brief: as §1
# [26] = molecular target: Gal(a1-3)Gal(b1-4)GlcNAc
# Method in brief: as §1
# [27] = molecular target: Gal(a1-3)Gal(b1-4)GlcNAc(b1-2)Man
# Method in brief: as §1
# [28] = molecular target: Gal(a1-3)Gal(b1-4)GlcNAc(b1-2)Man(a1-3)[Gal(a1-3)Gal(b1-4)GlcNAc(b1-2)Man(a1-6)]Man(b1-4)GlcNAc(b1-4)GlcNAc
# Method in brief: as §1
# [29] = molecular target: Gal(a1-3)Gal(b1-4)GlcNAc(b1-3)GalNAc
# Method in brief: as §1
# [30] = molecular target: Gal(a1-3)Gal(b1-4)GlcNAc(b1-6)GalNAc
# Method in brief: as §1
# [31] = molecular target: Gal(a1-3)Gal(b1-4)[Fuc(a1-3)]GlcNAc
# Method in brief: as §1
# [32] = molecular target: Gal(a1-3)Gal(b1-4)[Fuc(a1-3)]GlcNAc(b1-2)Man(a1-3)[Gal(a1-3)Gal(b1-4)[Fuc(a1-3)]GlcNAc(b1-2)Man(a1-6)]Man(b1-4)GlcNAc(b1-4)GlcNAc
# Method in brief: as §1
# [33] = molecular target: Gal(a1-3)GalNAc
# Method in brief: as §1
# [34] = molecular target: Gal(a1-3)[Gal(a1-4)]Gal(b1-4)GlcNAc
# Method in brief: as §1
# [35] = molecular target: Gal(a1-4)Gal(b1-3)GlcNAc(b1-2)Man(a1-3)[Gal(a1-4)Gal(b1-3)GlcNAc(b1-2)Man(a1-6)]Man(b1-4)GlcNAc(b1-4)GlcNAc
# Method in brief: as §1
# [36] = molecular target: Gal(a1-4)Gal(b1-4)Glc
# Method in brief: as §1
# [37] = molecular target: Gal(a1-4)Gal(b1-4)GlcNAc
# Method in brief: as §1
# [38] = molecular target: Gal(a1-4)Gal(b1-4)GlcNAc(b1-2)Man(a1-3)[Gal(a1-4)Gal(b1-4)GlcNAc(b1-2)Man(a1-6)]Man(b1-4)GlcNAc(b1-4)GlcNAc
# Method in brief: as §1
binder,measurement,setting,value
B1,glycan array binding signal (z-score),[1],-0.198
same,glycan array binding signal (z-score),[2],-0.202
same,glycan array binding signal (z-score),[3],-0.211
same,glycan array binding signal (z-score),[4],-0.215
same,glycan array binding signal (z-score),[5],-0.223
same,glycan array binding signal (z-score),[6],-0.232
same,glycan array binding signal (z-score),[7],-0.184
same,glycan array binding signal (z-score),[8],-0.211
same,glycan array binding signal (z-score),[9],-0.201
same,glycan array binding signal (z-score),[10],-0.214
same,glycan array binding signal (z-score),[11],-0.226
same,glycan array binding signal (z-score),[12],-0.217
same,glycan array binding signal (z-score),[13],-0.156
same,glycan array binding signal (z-score),[14],-0.2
same,glycan array binding signal (z-score),[15],-0.222
same,glycan array binding signal (z-score),[16],-0.164
same,glycan array binding signal (z-score),[17],-0.216
same,glycan array binding signal (z-score),[18],-0.22
same,glycan array binding signal (z-score),[19],-0.21
same,glycan array binding signal (z-score),[20],-0.191
same,glycan array binding signal (z-score),[21],-0.196
same,glycan array binding signal (z-score),[22],-0.217
same,glycan array binding signal (z-score),[23],-0.216
same,glycan array binding signal (z-score),[24],-0.17
same,glycan array binding signal (z-score),[25],-0.212
same,glycan array binding signal (z-score),[26],-0.206
same,glycan array binding signal (z-score),[27],-0.212
same,glycan array binding signal (z-score),[28],1.15
same,glycan array binding signal (z-score),[29],-0.217
same,glycan array binding signal (z-score),[30],-0.216
same,glycan array binding signal (z-score),[31],-0.217
same,glycan array binding signal (z-score),[32],-0.083
same,glycan array binding signal (z-score),[33],-0.206
same,glycan array binding signal (z-score),[34],-0.196
same,glycan array binding signal (z-score),[35],5.86
same,glycan array binding signal (z-score),[36],-0.214
same,glycan array binding signal (z-score),[37],-0.207
same,glycan array binding signal (z-score),[38],1.76

# Reference: the supplement of paper PMC8728848
